{"source": "the supplement of paper PMC11880418", "test_in_all_cases": "ALDHbr (CSC) cell proportion score relative to DMSO vehicle (ratio to DMSO); breast (SUM159) / gastric (MKN45) / pancreatic (PANC1) / colon cancer lines; ALDHbr cells have high ALDH activity and are rich in cancer stem cells (CSC); higher = more CSC (ALDHbr) cells remaining", "conditions_in_all_cases": "10 µM; 72 h", "key": {"MKN45": {"tested_on": "MKN45"}, "PANC1": {"tested_on": "PANC1"}, "SUM159": {"tested_on": "SUM159"}, "T84": {"tested_on": "T84"}}, "note": "Structures can show the parent of a compound that is named as a salt. Some of the results follow. The data scatter; read single values as rough.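 Note: High-content imaging of ALDEFLUOR-stained cells with Hoechst-labelled nuclei in 384-well plates, triplicate wells, scored as Z-score against 0.1% DMSO vehicle, negative meaning fewer ALDHbr cells.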", "data": [{"molecule": "CC(C)C(=O)Nc1ccc([N+](=O)[O-])c(C(F)(F)F)c1", "note": "[Flutamide]", "values": [{"measurement": "ALDHbr", "setting": "MKN45", "value": 0.932}, {"measurement": "ALDHbr", "setting": "PANC1", "value": 0.868}, {"measurement": "ALDHbr", "setting": "SUM159", "value": 1.38}, {"measurement": "ALDHbr", "setting": "T84", "value": 0.895}]}, {"molecule": "CCCCC(=O)O[C@H]1CC[C@H]2[C@@H]3CCc4cc(O)ccc4[C@H]3CC[C@]12C", "note": "[Estradiol Valerate]", "values": [{"measurement": "ALDHbr", "setting": "MKN45", "value": 1.11}, {"measurement": "ALDHbr", "setting": "PANC1", "value": 0.936}, {"measurement": "ALDHbr", "setting": "SUM159", "value": 1.12}, {"measurement": "ALDHbr", "setting": "T84", "value": 0.879}]}, {"molecule": "Cc1cc(-c2ccccc2)nnc1NCCN1CCOCC1", "note": "[Minaprine dihydrochloride]", "values": [{"measurement": "ALDHbr", "setting": "MKN45", "value": 1.04}, {"measurement": "ALDHbr", "setting": "PANC1", "value": 0.863}, {"measurement": "ALDHbr", "setting": "SUM159", "value": 0.956}, {"measurement": "ALDHbr", "setting": "T84", "value": 0.972}]}, {"molecule": "C#C[C@]1(O)CC[C@H]2[C@@H]3CCc4cc(OC)ccc4[C@H]3CC[C@@]21C", "note": "[Ethynylestradiol 3-methyl ether]", "values": [{"measurement": "ALDHbr", "setting": "MKN45", "value": 0.637}, {"measurement": "ALDHbr", "setting": "PANC1", "value": 0.902}, {"measurement": "ALDHbr", "setting": "SUM159", "value": 1.18}, {"measurement": "ALDHbr", "setting": "T84", "value": 0.919}]}, {"molecule": "O=C(O[C@@H]1C[C@@H]2C[C@H]3C[C@H](C1)N2CC3=O)c1c[nH]c2ccccc12", "note": "[Dolasetron mesilate]", "values": [{"measurement": "ALDHbr", "setting": "MKN45", "value": 0.833}, {"measurement": "ALDHbr", "setting": "PANC1", "value": 0.744}, {"measurement": "ALDHbr", "setting": "SUM159", "value": 1.3}, {"measurement": "ALDHbr", "setting": "T84", "value": 0.966}]}, {"molecule": "CC[N+](CC)(CC)CCOc1cccc(OCC[N+](CC)(CC)CC)c1OCC[N+](CC)(CC)CC", "note": "[Gallamine triethiodide]", "values": [{"measurement": "ALDHbr", "setting": "MKN45", "value": 1.03}, {"measurement": "ALDHbr", "setting": "PANC1", "value": 0.938}, {"measurement": "ALDHbr", "setting": "SUM159", "value": 1.14}, {"measurement": "ALDHbr", "setting": "T84", "value": 1.1}]}]}
